Test [1] addresses T1, CRK36 intracellular kinase domain, GAL4 fusion (Arabidopsis thaliana) (UniProt Q9XEC6).
T1 sequence: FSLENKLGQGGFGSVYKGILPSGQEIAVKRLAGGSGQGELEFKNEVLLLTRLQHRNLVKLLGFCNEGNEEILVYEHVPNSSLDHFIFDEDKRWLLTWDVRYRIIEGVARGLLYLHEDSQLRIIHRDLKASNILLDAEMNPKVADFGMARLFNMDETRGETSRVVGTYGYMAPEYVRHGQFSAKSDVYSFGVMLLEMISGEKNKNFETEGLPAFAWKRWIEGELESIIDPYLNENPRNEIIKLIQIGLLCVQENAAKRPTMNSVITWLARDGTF
As to the kind of experiment: two-hybrid; GAL4 system (Clontech), pGBKT7 (BD) and pGADT7 (AD) fusions in yeast AH109; growth on SD/-Ade-His-Leu-Trp, with or without X-alpha-Gal.

Sequences of proteins named here, by UniProt entry; tags and fusion partners are left off. A change or cut given only in a name is not applied to a line headed by its entry. Residues count along the entry.
UniProt Q9FL28: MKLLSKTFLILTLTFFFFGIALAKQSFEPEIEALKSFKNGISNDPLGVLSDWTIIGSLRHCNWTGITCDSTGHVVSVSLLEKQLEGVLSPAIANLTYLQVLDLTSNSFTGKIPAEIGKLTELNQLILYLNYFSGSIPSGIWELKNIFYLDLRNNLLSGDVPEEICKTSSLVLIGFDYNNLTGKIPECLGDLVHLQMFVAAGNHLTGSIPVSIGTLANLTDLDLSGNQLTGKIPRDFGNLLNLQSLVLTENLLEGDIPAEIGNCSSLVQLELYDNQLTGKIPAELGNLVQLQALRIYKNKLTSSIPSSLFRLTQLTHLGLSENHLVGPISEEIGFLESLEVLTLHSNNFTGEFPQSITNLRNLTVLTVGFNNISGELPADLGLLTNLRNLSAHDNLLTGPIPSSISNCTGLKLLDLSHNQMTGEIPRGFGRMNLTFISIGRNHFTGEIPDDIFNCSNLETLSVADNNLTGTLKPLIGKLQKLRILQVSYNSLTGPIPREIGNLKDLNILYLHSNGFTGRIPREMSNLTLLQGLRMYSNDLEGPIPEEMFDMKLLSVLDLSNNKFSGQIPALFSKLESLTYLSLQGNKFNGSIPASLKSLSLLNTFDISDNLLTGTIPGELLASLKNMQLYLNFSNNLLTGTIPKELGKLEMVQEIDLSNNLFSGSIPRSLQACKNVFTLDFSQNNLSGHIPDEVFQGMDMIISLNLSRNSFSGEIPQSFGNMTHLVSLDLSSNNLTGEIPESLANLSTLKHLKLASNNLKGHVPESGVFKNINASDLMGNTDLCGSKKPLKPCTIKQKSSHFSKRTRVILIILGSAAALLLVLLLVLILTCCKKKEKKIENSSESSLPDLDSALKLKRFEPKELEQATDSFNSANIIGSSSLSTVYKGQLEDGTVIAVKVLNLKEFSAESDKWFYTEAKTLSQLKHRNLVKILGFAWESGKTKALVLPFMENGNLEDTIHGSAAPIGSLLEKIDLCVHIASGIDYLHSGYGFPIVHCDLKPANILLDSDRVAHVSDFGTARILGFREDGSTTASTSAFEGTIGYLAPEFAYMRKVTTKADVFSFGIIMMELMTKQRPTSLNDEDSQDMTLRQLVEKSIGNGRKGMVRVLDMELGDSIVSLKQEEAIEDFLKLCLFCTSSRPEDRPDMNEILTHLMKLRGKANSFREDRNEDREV
FLS2-YFP^N (Arabidopsis protoplasts): residues 24-1173 of Q9FL28

Test [2] addresses T2, GST-fused BIK1 (Arabidopsis thaliana) (UniProt O48814).
T2 sequence: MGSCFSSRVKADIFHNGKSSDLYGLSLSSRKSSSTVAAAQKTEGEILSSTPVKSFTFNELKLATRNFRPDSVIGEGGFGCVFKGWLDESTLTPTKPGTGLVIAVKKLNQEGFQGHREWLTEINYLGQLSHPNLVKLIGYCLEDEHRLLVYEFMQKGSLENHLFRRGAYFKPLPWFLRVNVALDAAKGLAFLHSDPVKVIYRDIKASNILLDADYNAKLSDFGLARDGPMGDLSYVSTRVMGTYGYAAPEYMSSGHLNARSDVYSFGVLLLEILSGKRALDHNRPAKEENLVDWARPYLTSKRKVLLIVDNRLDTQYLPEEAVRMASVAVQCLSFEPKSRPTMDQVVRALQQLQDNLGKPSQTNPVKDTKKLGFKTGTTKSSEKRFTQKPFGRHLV
Kind of test: pull-down; GST-fused BIK1 (10 ug) incubated with His-tagged CRK36 kinase domain (10 ug) in 20 mM Tris-HCl pH 7.4, 200 mM NaCl, 1 mM EDTA, 2 h, 4 C; glutathione sepharose 4B beads; immunoblot with anti-GST and anti-His; both purified. (In western blotting, separated proteins are transferred to a membrane and probed.)

Test [3] addresses T3, BIK1-YFP^N (N. benthamiana) (Arabidopsis thaliana) (UniProt O48814).
T3 sequence: T2 sequence
Kind of test: split reporter; BiFC (split YFP) in N. benthamiana leaves co-infiltrated with Agrobacterium C58C1; confocal microscopy.

In test [4] the target is T4, BIK1-YFP^N (Arabidopsis protoplasts) (Arabidopsis thaliana) (UniProt O48814).
T4 sequence: T2 sequence
Kind of test: split reporter; BiFC (split YFP) in Arabidopsis mesophyll protoplasts, co-expressed for 24 h, untreated or treated with 100 nM flg22 for 15 min; confocal microscopy.

Test [5] addresses FLS2-YFP^N (Arabidopsis protoplasts) (Arabidopsis thaliana) (UniProt Q9FL28). The description is as above.
Test [6] addresses T5, BIK1-Myc (Arabidopsis thaliana) (UniProt O48814).
T5 sequence: T2 sequence
As to the kind of experiment: co-IP; protein extracts of N. benthamiana leaves expressing CRK36-HA and BIK1-Myc; immunoprecipitation with anti-Myc, protein A sepharose; immunoblot with anti-HA and anti-Myc.

No constants are given. Whether binding was seen depends on the method and setting. For some assays here: Binding seen in cells or lysates may run through a third protein. Some binding calls cover weakened binding; strength is not graded here. Tags and fused reporters may be left off the sequences shown.

For “FLS2 cytoplasmic kinase domain, GAL4 fusion (from UniProt Q9FL28 870-1155) (domain or fragment)”, the binding result in test [1] is given as “no binding”.

B1: His-tagged kinase domain of CRK36 (domain or fragment, UniProt Q9XEC6 340-612)
chain: T1 sequence
Take B1: the binding entry in test [2] was “binds”.

B2: BAK1 cytoplasmic kinase domain, GAL4 fusion (domain or fragment, UniProt Q94F62 289-576)
chain: FSNKNILGRGGFGKVYKGRLADGTLVAVKRLKEERTQGGELQFQTEVEMISMAVHRNLLRLRGFCMTPTERLLVYPYMANGSVASCLRERPESQPPLDWPKRQRIALGSARGLAYLHDHCDPKIIHRDVKAANILLDEEFEAVVGDFGLAKLMDYKDTHVTTAVRGTIGHIAPEYLSTGKSSEKTDVFGYGVMLLELITGQRAFDLARLANDDDVMLLDWVKGLLKEKKLEALVDVDLQGNYKDEEVEQLIQVALLCTQSSPMERPKMSEVVRMLEGDGLAERWEEWQ
Take B2: the binding result in test [1] is “no binding”.

B3: CERK1 cytoplasmic kinase domain, GAL4 fusion (domain or fragment, UniProt A8R7E6 322-594)
chain: FNLSFKIGQGGFGAVYYAELRGEKAAIKKMDMEASKQFLAELKVLTRVHHVNLVRLIGYCVEGSLFLVYEYVENGNLGQHLHGSGREPLPWTKRVQIALDSARGLEYIHEHTVPVYVHRDIKSANILIDQKFRAKVADFGLTKLTEVGGSATRGAMGTFGYMAPETVYGEVSAKVDVYAFGVVLYELISAKGAVVKMTEAVGEFRGLVGVFEESFKETDKEEALRKIIDPRLGDSYPFDSVYKMAELGKACTQENAQLRPSMRYIVVALSTLF
Regarding B3, the binding result in test [1] was “no binding”.

B4: CRK36-YFP^C (N. benthamiana) (receptor, UniProt Q9XEC6 27-658)
chain: TFVCGDEDFSPNTSYVENLESLLPSLASNVIRERGFYNVSLDGVYALALCRKHYEVQACRRCVDRASRTLLTQCRGKTEAYHWDSENDANVSCLVRYSNIHRFGKLKLEPIGNVPHSSLDPSSNLTRISQEFAARANRTVEVASTADESSVLKYYGVSSAEFTDTPEVNMLMQCTPDLSSSDCNHCLRENVRYNQEHNWDRVGGTVARPSCYFRWDDYRFAGAFDNLERVPAPPRSPQTRQDYRVKKGRMFQPWSVVVVVFPTGINLAVFVAFVLAYRRMRRRIYTEINKNSDSDGQATLRFDLGMILIATNEFSLENKLGQGGFGSVYKGILPSGQEIAVKRLAGGSGQGELEFKNEVLLLTRLQHRNLVKLLGFCNEGNEEILVYEHVPNSSLDHFIFDEDKRWLLTWDVRYRIIEGVARGLLYLHEDSQLRIIHRDLKASNILLDAEMNPKVADFGMARLFNMDETRGETSRVVGTYGYMAPEYVRHGQFSAKSDVYSFGVMLLEMISGEKNKNFETEGLPAFAWKRWIEGELESIIDPYLNENPRNEIIKLIQIGLLCVQENAAKRPTMNSVITWLARDGTFTIPKPTEAAFVTLPLSVKPENRSMSERKDKDPFSVDEVSITVLYPR
Consider B4, for which the binding entry in test [3] is on record as “binds”.

B5: CRK36-YFP^C (Arabidopsis protoplasts) (receptor, UniProt Q9XEC6 27-658)
chain: B4 chain
For the molecule B5, the binding entry in test [4] and in test [5] was “binds” each time.

B6: CRK36-HA (receptor, UniProt Q9XEC6 27-658)
chain: B4 chain
Regarding B6, the binding entry in test [6] is on record as “binds”.
